Out of some 45,000 compounds screened, about 65 (0.1%) were called active. The call rests on the fitted dose curve; in most records, active means well fitted activation curve with a large enough effect; inconclusive means small, poorly fitted or top-dose-only effect; inactive means no such curve, though single readings can be large or run the other way. The list shows a part of the results.
These compounds were tested against Galactocerebrosidase (Homo sapiens) (UniProt P54803) (assay: A Novel Cell-Based Assay to Identify Small Molecules for B -Galactocerebrosidase). Conditions: 145M-Twi-hGALC-G270D cells (Twitcher mouse brain line with human GALC G270D), HMU-beta-Gal fluorescence, 48 h; series mostly up to 57.5 µM; activation: at the top concentration.
UniProt P54803, sequence (P54803 whole entry, looked up): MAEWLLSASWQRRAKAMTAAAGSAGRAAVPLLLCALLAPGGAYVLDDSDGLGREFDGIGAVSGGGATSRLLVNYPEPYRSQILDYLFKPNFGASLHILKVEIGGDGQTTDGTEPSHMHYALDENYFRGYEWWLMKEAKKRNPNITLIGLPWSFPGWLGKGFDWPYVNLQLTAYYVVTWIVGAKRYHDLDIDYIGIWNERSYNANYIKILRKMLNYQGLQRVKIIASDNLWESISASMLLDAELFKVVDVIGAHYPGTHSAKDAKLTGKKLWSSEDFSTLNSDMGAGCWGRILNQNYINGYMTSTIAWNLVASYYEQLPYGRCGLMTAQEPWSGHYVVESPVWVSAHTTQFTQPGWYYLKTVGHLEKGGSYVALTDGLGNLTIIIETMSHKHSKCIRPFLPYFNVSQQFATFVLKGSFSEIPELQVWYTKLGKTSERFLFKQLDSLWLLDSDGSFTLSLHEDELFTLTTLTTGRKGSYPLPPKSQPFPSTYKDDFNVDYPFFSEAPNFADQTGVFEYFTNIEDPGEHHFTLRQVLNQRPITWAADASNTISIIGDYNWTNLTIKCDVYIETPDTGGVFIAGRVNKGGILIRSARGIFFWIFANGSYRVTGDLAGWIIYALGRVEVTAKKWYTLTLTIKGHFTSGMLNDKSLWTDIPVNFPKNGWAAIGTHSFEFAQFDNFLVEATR
Summary of the method: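 Fluorescence readout: HMU-β-gal cleavage by mutant GALC (0.1 mM final, citrate/phosphate pH 5.2 with 1 mg/mL taurocholate), stopped with carbonate/bicarbonate plus Triton X-100. Cells: murine Twitcher 145M-Twi expressing human G270D GALC; qHTS for activators.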
Further: 0% is about no effect; nearly all actives have a fitted effect of over 65% in size.

activation, inactive:
CC(NC(=O)c1cc2ccccc2o1)c1ccccc1 (configuration not stated) -15.8%
CCC(=O)N1CCc2cc(CNC(=O)c3ccc(C#N)cc3)ccc21 -6.19%
COc1ccccc1CN1CCN(C2CCN(C(=O)Nc3ccccc3)CC2)C(=O)C1=O -16%
Cc1ccc(NC(=O)Cn2c(-c3nonc3N)nc3ccccc32)cc1C 0.219%
CCc1ccc(S(=O)(=O)c2cn(C)c3cc(F)c(F)cc3c2=O)cc1 -12.6%
CCOC(=O)c1c(C)[nH]c(C)c1S(=O)(=O)N1CCCC(C(=O)Nc2cccc(C)n2)C1 (configuration not stated) 1.9%
CCOc1ccc(NC(=O)CSC2=Nc3ccccc3C3=NC(Cc4ccccc4)C(=O)N23)cc1 (configuration not stated) -19.7%
CCCn1nc(NC(=O)c2cccc(Cl)c2)c2cc3cccc(C)c3nc21 -1.62%
COc1ccc(-c2nc3sc(CCNC(=O)C(=O)Nc4ccc(C)c(F)c4)c(C)n3n2)cc1 -17.6%
COc1cc(NC(=O)c2cc3ccc4cccnc4c3[nH]2)cc(OC)c1OC -2.12%
COc1ccccc1N1CCN(S(=O)(=O)CCNC(=O)C2CC(=O)N(c3ccccc3)C2)CC1 (configuration not stated) -8.85%
CCS(=O)(=O)c1oc(-c2ccc(F)cc2)nc1S(=O)(=O)c1ccc(Br)cc1 -18.1%
CC(Nc1ccc(-c2nc(-c3ccco3)no2)cc1[N+](=O)[O-])c1ccccc1 (configuration not stated) -0.228%
Cc1ccccc1NC(=O)CCNC(=O)Cn1ccc2ccccc2c1=O -17.6%
CC(C)(C)C(=O)Nc1cccc(C(=O)OCc2cc(=O)n3nc(C4CC4)sc3n2)c1 15.6%
O=C1CN(C(=O)COc2ccc(Cl)cc2)C(c2ccc(F)cc2)c2cc(Br)ccc2N1 (configuration not stated) -8.48%
CC(=O)C1=C(c2ccc(Cl)c(Cl)c2)N(C(C)=O)n2cnnc2S1 -16.7%
Cc1ccc(NC(=O)N2CCN(Cc3nc4ccc(C)cc4o3)CC2)c(Cl)c1 0.722%
CCOC(=O)c1ccc(NC(=O)CSc2nc(-c3cccs3)cc(C(F)(F)F)c2C#N)cc1 -8.34%
CCOC(=O)N1CCc2c(sc(NCc3sccc3C)c2C(=O)Nc2cc(Cl)ccc2OC)C1 -11.1%
CCS(=O)(=O)c1nc(S(=O)(=O)c2ccc(C)cc2)c(NCC(C)C)s1 -14.7%
O=C(Cn1c(=O)oc2cc(S(=O)(=O)NCc3ccccc3)ccc21)NCc1ccccc1Cl -4.67%
Nc1ccc2nc(-c3ccc(O)cc3)sc2c1 -12.6%
CCOC(=O)c1cc(-c2ccccc2)n(CCC(=O)Nc2cc(C)cc(C)c2)c1C -13.6%
COc1ccc(NC(=O)CC2C(=O)N(c3ccc(F)cc3)C(=O)N2CCc2sccc2C)cc1 (configuration not stated) -8.7%
Cc1ccc2scc(N3CCCCC3)c(=O)c2c1 -6.39%
COCCCNC(=O)c1cnn(-c2ccc(F)cc2F)c1C1CCNCC1 -14.3%
N#C/C(=C1/SC[C@@H](c2ccc(Cl)cc2Cl)S1)n1ccnc1 -11.9%
CN(Cc1ccccc1)C(=O)C1CCC(CNS(=O)(=O)c2ccc3c(c2)CCCC(=O)N3)CC1 (configuration not stated) -5.7%
Cc1ccc2nc(NC(=O)c3nc(SCc4ccccc4C)ncc3Cl)sc2c1 1.48%
Cc1ccc(N2CCN(C(=O)C3CCN(c4ncnc5c4nc4n5CCCCC4)CC3)CC2)c(C)c1 -2.63%
COc1cc([C@H]2Oc3cc([C@H]4Oc5cc(O)cc(O)c5C(=O)[C@@H]4O)ccc3O[C@@H]2CO)ccc1O 22.2%
CC(=O)N1CCC2(CC1)OC(=O)C(C)=C2C(=O)NCc1cccc(Cl)c1 -20.8%
O=C(O)CCc1nnc2cnc3ccccc3n12 -11.6%
Cc1ccc2ncc(C(=O)NC(C)c3ccccc3)c(=O)n2c1 (configuration not stated) -18.5%
Cc1ccc(CN2CCCn3nc(C(=O)NCc4cc(C)ccc4C)cc3C2=O)cc1 -21.7%
Cc1ccc(C(=O)Nc2nnc(S(=O)(=O)N3CCN(c4ccc(F)cc4)CC3)s2)cc1 -3.25%
O=[N+]([O-])c1cc(-c2nc(-c3ccccn3)no2)ccc1NCc1ccccc1 -24.8%
Cc1ccc(CNC(=O)c2cnc3c(-c4ccccc4)c(C)nn3c2C)o1 -6.88%
C[N+](C)(C)CC(O)CC(=O)[O-] (configuration not stated) -2.61%
Cc1ccc(N2CCN(C(=O)c3c(C)oc4ncnc(N5CCOCC5)c34)CC2)c(C)c1 -11.8%
Cc1ccc(N2C(=O)CS(=O)(=O)C23C(=O)N(C)c2ccccc23)cc1F (configuration not stated) -16.5%
Cc1ccc(C)c(Nc2cc(C(=O)NCCCN(C)C3CCCCC3)c3ccccc3n2)c1 -8.51%
COc1cc(NC(=O)NCC2CCN(Cc3ccc(C)cc3)CC2)cc(OC)c1OC -10.1%
COCCCNC(=O)CCC(=O)NNc1nc2ccccc2c2nc(-c3ccccc3)nn12 -10.4%
O=C(NCCc1ccccc1)C(=O)NCC(c1ccco1)S(=O)(=O)c1ccccc1 (configuration not stated) -6.34%
CCOc1ccc(NC(=O)CSc2nnc(-c3ccncc3)n2-c2ccccc2)cc1 -16.6%
COCCNC(=O)CSc1nc2cc3c(cc2c(=O)n1Cc1ccc(C(=O)NCCc2ccc(OC)c(OC)c2)cc1)OCO3 -4.18%
COc1ccc(NC(=O)C(C)n2nc(-c3cc(C)ccc3C)c3c(c2=O)CCCC3)cc1 (configuration not stated) -10%
CCc1cccc(NC(=O)CSc2ncc3c(n2)-c2ccccc2N(CC)S3(=O)=O)c1 -5.69%
COc1ccc(CNC(=O)c2ccc(CSc3nc4ccncc4n3Cc3ccccc3F)cc2)cc1 -12.5%
Nc1c[n+](N2CCOCC2)no1 -13.4%
COc1ccc(NC(=O)Cn2c(=O)n(Cc3ccccc3)c(=O)c3oc4ccccc4c32)cc1Cl -5.94%
Cc1nc2c(C(=O)NCc3ccccc3Cl)cnn2c(C)c1Cc1ccccc1 -11.1%
Cc1nc(N2CCCC2)ncc1C(=O)N1CCN(c2ccc(Cl)cc2)CC1 -14.2%
Cc1ccc(C)c(-n2cc(-c3ccccc3)nc2SCC(=O)Nc2ccccc2)c1 -10.8%
CCOc1ccc(Nc2ncnc3c2cnn3-c2ccc(F)cc2)cc1 -11.3%
CCOC(=O)C(=O)Nc1nnc2n1CCS2 -17.4%
CCOC(=O)c1ccccc1NC(=O)Cn1c(=O)n(CCCC(=O)NCc2ccc3c(c2)OCO3)c(=O)c2ccccc21 6.29%
CCCCOc1cc(C(=O)OCCN(CC)CC)ccc1N -10.6%
Cn1cc(S(=O)(=O)N2CCCCC2)cc1C(=O)N1CCN(c2ccccc2F)CC1 7.65%
O=C(CSc1nc2c([nH]c3ccccc32)c(=O)n1-c1ccc(Cl)cc1)N1CCCCCC1 -13.4%
